# From PubChem BioAssay AID504339 (National Center for Advancing Translational Sciences (NCATS), 2011)
# About 17,000 (4.4%) of roughly 390,000 compounds were called active. This list was built around the results that the source calls inconclusive (neither active nor inactive); the mix of calls is not that of the screen. Calls follow the shape of the dose curve; as a rule, active = well fitted inhibition curve with a large enough effect; inconclusive = small, poorly fitted or top-dose-only effect; inactive = no such curve, though single readings can be large or run the other way. Potencies beside an inconclusive call are fits to weak or partial responses and may not hold up.
# Target: Lysine-specific demethylase 4A (Homo sapiens) (UniProt O75164)
# Assay: qHTS Assay for Inhibitors of JMJD2A-Tudor Domain; also: nearly all actives have a fitted effect of over 50% in size
# Conditions: AlphaScreen JMJD2A-Tudor / H3K4me3 peptide binding; activity change, negative = inhibition: at 114 µM (top of the series)
# % is scaled to controls: 0 for no effect and ±100 for the full control effect; potency is read from the fitted curve at half-maximal effect; tags tell the direction and shape of the fitted curve.
# UniProt O75164, sequence (O75164 whole entry, looked up, the tested form may be a part): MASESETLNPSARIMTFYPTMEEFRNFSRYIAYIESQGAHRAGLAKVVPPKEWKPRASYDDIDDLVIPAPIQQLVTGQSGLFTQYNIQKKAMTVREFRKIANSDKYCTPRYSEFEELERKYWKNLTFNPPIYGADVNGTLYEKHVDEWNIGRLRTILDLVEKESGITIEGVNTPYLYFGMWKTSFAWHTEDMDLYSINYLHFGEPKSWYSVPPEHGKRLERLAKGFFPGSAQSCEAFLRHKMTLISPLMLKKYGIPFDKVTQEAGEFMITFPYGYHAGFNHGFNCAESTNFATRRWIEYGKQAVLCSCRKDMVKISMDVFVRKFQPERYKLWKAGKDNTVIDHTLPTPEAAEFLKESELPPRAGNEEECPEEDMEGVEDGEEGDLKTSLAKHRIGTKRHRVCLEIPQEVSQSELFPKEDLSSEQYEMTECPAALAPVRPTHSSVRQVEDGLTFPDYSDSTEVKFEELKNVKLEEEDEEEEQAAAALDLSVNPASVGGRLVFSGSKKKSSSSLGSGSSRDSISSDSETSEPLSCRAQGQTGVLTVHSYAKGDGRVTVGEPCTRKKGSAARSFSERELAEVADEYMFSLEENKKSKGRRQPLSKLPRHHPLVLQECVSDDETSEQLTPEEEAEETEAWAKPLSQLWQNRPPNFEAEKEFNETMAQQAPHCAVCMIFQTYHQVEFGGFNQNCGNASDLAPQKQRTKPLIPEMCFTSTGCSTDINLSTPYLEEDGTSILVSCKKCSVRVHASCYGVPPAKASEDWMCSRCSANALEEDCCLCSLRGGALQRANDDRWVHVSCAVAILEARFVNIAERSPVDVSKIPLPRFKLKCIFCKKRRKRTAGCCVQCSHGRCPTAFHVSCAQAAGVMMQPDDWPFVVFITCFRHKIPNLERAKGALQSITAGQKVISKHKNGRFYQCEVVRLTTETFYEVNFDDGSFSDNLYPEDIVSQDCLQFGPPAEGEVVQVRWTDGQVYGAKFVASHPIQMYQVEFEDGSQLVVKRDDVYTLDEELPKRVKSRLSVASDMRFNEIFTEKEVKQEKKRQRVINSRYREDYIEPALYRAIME
SMILES,Potency,"activity change, negative = inhibition"
COc1cccc(N(C(=O)Cn2nnc(-c3ccc(C)cc3)n2)C(C(=O)NC(C)(C)C)c2c[nH]c3ccccc23)c1 (stereo not given),"inconclusive: 35.5 µM [inhibitor, partial curve]",–
O=C(O)c1cccc(Cn2c(Cl)c(/C=N/NC(=O)c3ccccc3)sc2=O)c1,inactive,–
Cc1cccn2c(=O)c(/C=N/O)c(N3CCCCC3)nc12,"inconclusive: 56.2 µM [inhibitor, partial curve, poor fit]",–
COC(=O)c1ccc(/C=C/c2ccc3cccc(OC(C)=O)c3n2)cc1,inactive,–
CCOC(=O)c1c(N)sc(N)c1C(=O)OCC,"inconclusive: 44.7 µM [inhibitor, single point]",–
CCCCc1n[nH]c(=S)n1Cc1ccc(Cl)cc1,"inconclusive: 25.1 µM [inhibitor, single point]",–
COC(=O)c1cc2c(ccn2-c2ccc(F)cc2)n1Cc1cccc(OC)c1,"inconclusive: 22.4 µM [inhibitor, full curve]",–
COc1ccccc1/C=N/NC(=O)c1cc2c(OC)c(OC)ccc2[nH]1,"inconclusive: 56.2 µM [inhibitor, partial curve]",–
COc1ccc(OCC(=O)Nc2ccc3c(c2)nc(CCN2CCN(C)CC2)n3C)cc1,"inconclusive: 7.94 µM [inhibitor, full curve, poor fit]",–
CC(C)C[C@@H](CNCC(=O)[C@H](Cc1c[nH]c2ccccc12)NC(=O)c1[nH]cnc1C(=O)N[C@@H](C)CN)NC(=O)c1nc[nH]c1C(=O)N[C@@H](Cc1ccccc1)C(=O)O,"inconclusive: 56.2 µM [inhibitor, partial curve]",–
O=[N+]([O-])c1ccccc1S(=O)(=O)NCCSc1ccccc1,"inconclusive: 56.2 µM [inhibitor, partial curve]",–
CCCCn1c(N)c(N(CCOC)C(=O)c2ccc(-c3ccc(C(C)=O)cc3)o2)c(=O)[nH]c1=O,"inconclusive: 39.8 µM [inhibitor, partial curve, poor fit]",–
Cc1ccc([N+](=O)[O-])cc1N=C(c1ccc([N+](=O)[O-])cc1)N1CCOCC1,active: 79.4 µM,–
CC(=O)Nc1cccc(OC2=NS(=O)(=O)c3ccccc32)c1,"inconclusive: 79.4 µM [inhibitor, single point]",–
Cc1ccc(S(=O)(=O)N2CCN(C(=O)c3ccc(N4CCCCC4)c([N+](=O)[O-])c3)CC2)cc1,"inconclusive: 10 µM [inhibitor, full curve]",–
Cc1nc2c(C)cccn2c1/C(O)=C1\C(=O)C(=O)N(CCN2CCOCC2)C1c1ccncc1 (stereo not given),active: 5.62 µM,–
COc1ccc(S(=O)(=O)Nc2cc3c(cc2NCc2ccccc2)n(C)c(=O)n3C)cc1OC,"inconclusive: 56.2 µM [inhibitor, partial curve]",–
CCOc1ccc(/C=N/NC(=O)c2cc3c(OC)cccc3[nH]2)cc1,"inconclusive: 35.5 µM [inhibitor, partial curve]",–
O=C(CSc1nnc(-c2ccc(OC(F)F)cc2)o1)NC(=O)NCc1ccco1,"inconclusive: 79.4 µM [inhibitor, partial curve, poor fit]",–
Cc1ccc2nc(C)cc(C(=O)OCC(=O)c3ccc(Cl)c([N+](=O)[O-])c3)c2c1,"inconclusive: 35.5 µM [inhibitor, partial curve, poor fit]",–
CCCCN1CCc2nc(N3CCN(c4ncccn4)CC3)ncc2C1,active: 79.4 µM,–
CCCCc1ccc(NC(=O)NCc2cccnc2)cc1,inactive,–

SMILES,Potency,"activity change, negative = inhibition"
CC(=O)c1cccc(NC(=O)c2cc(=O)[nH]c3ccccc23)c1,inactive,–
Cc1ccc(S(=O)(=O)c2nc(-c3cccs3)oc2SCC(N)=O)cc1,inactive,–
Cc1ccc(N2CCN(C(=S)c3ccc(N(C)C)cc3)CC2)cc1,active: 31.6 µM,–
O=C(Oc1ccc(OC(=O)C2CCC2)cc1)C1CCC1,"inconclusive: 89.1 µM [inhibitor, single point]",–
CCCCN1C(=O)C2(NNc3ccccc3O2)c2ccccc21 (stereo not given),"inconclusive: 20 µM [inhibitor, full curve]",–
Cc1cc(C(=O)COc2cccnc2[N+](=O)[O-])c(C)n1Cc1ccco1,"inconclusive: 56.2 µM [inhibitor, partial curve]",–
CCC(=O)N(Cc1cc(=O)[nH]c2ccccc12)c1cccc(C)c1,active: 79.4 µM,–
O=C1c2cccc3c([N+](=O)[O-])c(O)cc(c23)C(=O)N1Nc1ccccc1,"inconclusive: 22.4 µM [inhibitor, single point]",–
Cc1ccc(/C(O)=C2/C(=O)C(=O)N(c3ccccn3)C2c2ccc(F)cc2)cc1 (stereo not given),inactive,–
CC1CCN(C(=O)c2ccc(SCc3ccccc3F)c([N+](=O)[O-])c2)CC1,"inconclusive: 39.8 µM [inhibitor, partial curve]",–
CCCn1c(C(C)Nc2nc(-c3ccc(C)cc3)cs2)nc2cc(Cl)c(N3CCCCC3)cc21 (stereo not given),"inconclusive: 44.7 µM [inhibitor, full curve]",–
CC(C)Cc1ccc(C(C)/C=C2/CCC(CN3CCCCC3)C2=O)cc1 (stereo not given),"inconclusive: 56.2 µM [inhibitor, partial curve]",–
CC1CC1c1ccc(/C=C(\C#N)C(=O)Nc2ccc(Cl)cc2)o1 (stereo not given),"inconclusive: 17.8 µM [inhibitor, partial curve, poor fit]",–
O=C1C(Cl)=C(NCCCN2CCOCC2)C(=O)c2ccccc21,"inconclusive: 56.2 µM [inhibitor, partial curve]",–
O=C(O)CCC(=O)N1CCc2cc(S(=O)(=O)N3CC=C(c4ccccc4)CC3)ccc21,"inconclusive: 79.4 µM [inhibitor, single point]",–
COc1ccccc1N1CCN(CC(O)COc2cc(C)cc(C)c2)CC1 (stereo not given),active: 79.4 µM,–
C[C@]12c3[nH]c4cc(-c5ccco5)ccc4c3CCN1C(=O)[C@@H](CC(=O)NCCC1=CCCCC1)C[C@@H]2C(=O)N1CCOCC1,"inconclusive: 50.1 µM [inhibitor, partial curve]",–
CC1CCN(c2nc(N(C)c3ccccc3)nc(N)c2[N+](=O)[O-])CC1,"inconclusive: 25.1 µM [inhibitor, full curve]",–
Cc1cccc(C)c1-n1cccc1/C=C1\SC(=S)N(c2cccc(C(=O)O)c2)C1=O,"inconclusive: 22.4 µM [inhibitor, full curve]",–
COc1ccc(C(=O)/C(=C/O)N=Nc2ccc(F)cc2)cc1,active: 56.2 µM,–
COc1ccc(N2CCN(S(=O)(=O)c3ccc4c(c3)CCCC4)CC2)c([N+](=O)[O-])c1,"inconclusive: 7.94 µM [inhibitor, full curve]",–
Cc1cnc(C(=O)Nc2ccc(C)c(S(=O)(=O)N(C)C)c2)cn1,active: 50.1 µM,–

SMILES,Potency,"activity change, negative = inhibition"
O=C(Cn1c2ccccc2c(=O)c2ccccc21)Nc1cccc(F)c1,active: 15.8 µM,–
COc1ccc(C(C)=NNc2ccc([N+](=O)[O-])cc2S(=O)(=O)Nc2ccccc2C(=O)O)c(OC)c1,"inconclusive: 63.1 µM [inhibitor, partial curve, poor fit]",–
O=C(Nc1ccc2c(c1)OCO2)C1CCN(C(=O)CSc2ncnc3ccccc23)CC1,"inconclusive: 44.7 µM [inhibitor, partial curve]",–
COCCNc1nc(=S)[nH]c2cc(OC)c(OC)cc12,"inconclusive: 89.1 µM [inhibitor, single point]",–
Cc1ccc(NCCC(=O)c2cccs2)cc1C,active: 56.2 µM,–
O=C1CCC(C(=O)Nc2cccc(S(=O)(=O)Nc3ccccc3F)c2)=NN1,"inconclusive: 17.8 µM [inhibitor, full curve]",–
Cc1ccc(OC(C)C(=O)OCC(=O)Nc2sccc2C(N)=O)cc1 (stereo not given),"inconclusive: 79.4 µM [inhibitor, partial curve]",–
CCOc1ccc(N2CC(C(=O)NCCN3C(=O)S/C(=C/c4cccnc4)C3=O)CC2=O)cc1 (stereo not given),inactive,–
Cc1cc(C)cc(C(=O)NCC(=O)OCC(=O)N2c3ccccc3NC(=O)C2(C)C)c1,inactive,–
CC(=O)N1CCN(c2ccc(Oc3ccc([N+](=O)[O-])c(C(F)(F)F)c3)cc2)CC1,"inconclusive: 56.2 µM [inhibitor, partial curve]",–
c1csc(CSc2nc3ccccc3s2)c1,inactive,–
Cc1c(NC(=O)/C=C/c2cn(-c3ccccc3)nc2-c2ccc(F)cc2)c(=O)n(-c2ccccc2)n1C,"inconclusive: 7.08 µM [inhibitor, single point]",–
COc1ccc(C(=O)NCCN2C(=O)S/C(=C\c3cccnc3)C2=O)cc1[N+](=O)[O-],inactive,–
COc1ccc(S(=O)(=O)N(CCCN2CCCC2=O)Cc2cc3cc(C)c(C)cc3[nH]c2=O)cc1,–,inactive: -5.48% [at 11.4 µM]
CC1=NN(c2ccccc2)C(=O)C1C(=O)c1ccccc1 (stereo not given),"inconclusive: 89.1 µM [inhibitor, single point]",–
CCSc1ncc(Cl)c(C(=O)Nc2c(C(=O)Nc3ccc(Cl)cc3)oc3ccccc23)n1,inactive,–
COC(=O)N/N=C/c1cn(CCOc2ccc(OC)cc2)c2ccccc12,"inconclusive: 44.7 µM [inhibitor, partial curve]",–
O=c1cc(CO)oc(C(Nc2ccccn2)c2ccccc2F)c1O (stereo not given),active: 22.4 µM,–
N#Cc1c(-c2ccccc2)c(-c2ccccc2)nn(CC(=O)NNC(=O)Nc2ccccc2)c1=O,"inconclusive: 44.7 µM [inhibitor, partial curve]",–
CCc1nnc(N/N=C/c2cc(Br)c(O)cc2O)n1N,active: 79.4 µM,–
Cn1c(=O)c2c(nc(CN3CCOCC3)n2CCc2ccccc2)n(C)c1=O,inactive,–
